Assay results published in PubChem BioAssay AID1476 (National Center for Advancing Translational Sciences (NCATS), 2009).
About 4,500 (2.2%) of roughly 200,000 compounds were called active. This list was built around the results that the source calls inconclusive (neither active nor inactive); the mix of calls is not that of the screen. Calls come from the whole dose curve; as a rule, active = well fitted inhibition curve with a large enough effect; inconclusive = small, poorly fitted or top-dose-only effect, or effect the other way; inactive = flat fitted curve, though single readings scatter. Potencies of inconclusive entries are doubtful fits and often do not repeat.

What follows are compounds tested against Cruzipain (Trypanosoma cruzi) (UniProt P25779) (assay: qHTS Assay for Promiscuous and Specific Inhibitors of Cruzain (without detergent)). Details: purified cruzain, Z-FR-AMC fluorescence, no detergent.
Sequence of UniProt P25779 (P25779 whole entry, looked up): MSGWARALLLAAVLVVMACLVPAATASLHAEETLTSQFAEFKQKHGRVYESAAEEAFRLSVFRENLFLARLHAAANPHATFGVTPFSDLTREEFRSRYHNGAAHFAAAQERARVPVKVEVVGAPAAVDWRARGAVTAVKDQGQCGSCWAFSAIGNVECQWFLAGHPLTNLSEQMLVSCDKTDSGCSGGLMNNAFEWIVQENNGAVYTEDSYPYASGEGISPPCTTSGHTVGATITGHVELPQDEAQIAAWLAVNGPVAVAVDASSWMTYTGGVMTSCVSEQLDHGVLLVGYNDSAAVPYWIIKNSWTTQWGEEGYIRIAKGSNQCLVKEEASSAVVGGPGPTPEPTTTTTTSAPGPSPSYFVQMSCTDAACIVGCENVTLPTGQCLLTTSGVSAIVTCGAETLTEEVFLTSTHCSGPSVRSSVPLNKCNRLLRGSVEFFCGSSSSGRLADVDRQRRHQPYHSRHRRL
Procedure, shortened: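 Purified cruzain at 1.5 nM, pre-incubated 15 min with compound at room temperature in 100 mM sodium acetate pH 5.5, 5 mM DTT, 0.00005% Triton X-100. Reaction started with 2 uM Z-FR-AMC; AMC fluorescence increase over 60 s gives rate.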
Note: nearly all actives have a fitted effect of over 40% in size.
Potency is the fitted concentration of half-maximal effect; tags give direction and shape of the fitted curve.
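Throughout, for max response, negative = inhibition: plate controls were enzyme without inhibitor for no effect and buffer without enzyme for full effect.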

SMILES	max response, negative = inhibition	Potency
COc1cccc(NC(=O)NCc2ccc3c(c2)CCN3C(=O)c2ccccc2)c1	inactive: -24.4%	
O=C(COc1ccc(S(=O)(=O)N2CCCC2)cc1Cl)NC1CCCC1		inconclusive: 39.8 µM [activator, single point]
Cc1cc(C)c(-c2csc(NC(=O)/C=C/c3cccs3)n2)c(C)c1		inconclusive: 39.8 µM [inhibitor, single point]
CC(C)(C)C1CC=C2C(C#N)=C(N)C(C#N)(C#N)C(c3cccs3)C2C1 (stereo unspecified)		inconclusive: 31.6 µM [activator, single point]
Cc1ccc(S(=O)(=O)c2cc3c(=O)n4ccccc4nc3n(C)c2=N)cc1		inconclusive: 3.16 µM [activator, single point]
Cc1ccc(N2C(=O)C3N=NN(CC(=O)N4N=C(c5cccc6ccccc56)CC4c4ccccc4)C3C2=O)cc1 (stereo unspecified)		active: 7.94 µM
COc1ccccc1N1CCN(C(=O)C2CCN(S(=O)(=O)c3ccccc3)CC2)CC1		inconclusive: 31.6 µM [activator, single point]
CCc1ccc(-c2nc(CSCC(=O)N3CCN(c4ccccn4)CC3)c(C)o2)cc1		inconclusive: 39.8 µM [activator, single point]
CCC(CC)C(=O)NC12CC3CC(CC(C3)C1)C2		inconclusive: 39.8 µM [inhibitor, single point]
Cc1nn(-c2ccc([N+](=O)[O-])cc2)c2c1C(c1cccc(Br)c1)N1C(=N2)C(=O)Nc2ccccc21 (stereo unspecified)		active: 3.98 µM
O=C(CN1C(=O)c2ccccc2C1=O)NN1C(=O)c2ccccc2C1=O		inconclusive: 39.8 µM [inhibitor, single point]
CCOC(=O)c1c(-c2ccccc2)csc1NC(=S)NC(=O)c1ccccc1		inconclusive: 31.6 µM [inhibitor, partial curve, poor fit]
NC1=NC(=O)/C(=C\C=C\c2ccccc2)S1		inconclusive: 31.6 µM [inhibitor, single point]
Cc1sc2ncnc(SCC(=O)c3ccc(Cl)s3)c2c1C		active: 10 µM
CCn1c(C)c(C)c2cc(C(=O)NCCc3cc(OC)c(OC)c(OC)c3)ccc21		inconclusive: 39.8 µM [activator, single point]
COc1ccc(-c2noc(CSc3nc4ccccc4c(=O)n3-c3ccccc3)n2)cc1		inconclusive: 39.8 µM [inhibitor, single point]
COc1ccc(N2CCN(c3nc(Cl)nc(Nc4ccc(F)cc4)n3)CC2)cc1		inconclusive: 25.1 µM [inhibitor, single point]
COc1ccc(N2CCN(C(=O)C3CCN(S(=O)(=O)c4cnc[nH]4)CC3)CC2)cc1	inactive: -2.35%	
CC(Cc1ccccc1)C(=O)NCC1CC1 (stereo unspecified)	inactive: -1.89%	
CCc1ccc(CNC(=O)C(CC)n2ccc3cc(S(=O)(=O)N4CCCCC4)ccc32)cc1 (stereo unspecified)	inactive: -27.7%	
CCOC(=O)COc1ccc(S(=O)(=O)N2CCN(c3ccccc3)CC2)cc1		inconclusive: 31.6 µM [activator, single point]

SMILES	max response, negative = inhibition	Potency
Cc1ccc(C)c(N2CCN(C(=O)C3CCN(S(=O)(=O)c4cn(C)cn4)CC3)CC2)c1		inconclusive: 31.6 µM [activator, single point]
CC1CN(c2nn3c(=O)c4ccccc4nc3c3ccccc23)CC(C)O1 (stereo unspecified)		inconclusive: 39.8 µM [activator, single point]
O=c1cc(-c2ccccc2)nc(SCc2ccc(Cl)cc2)[nH]1		inconclusive: 3.98 µM [inhibitor, single point]
C#CCn1cc(/C=N/Nc2nc3ccccc3[nH]2)c2ccccc21		active: 31.6 µM
CCOC(=O)N1CCc2c(sc(NCc3ccc(OCC)cc3)c2C(=O)Nc2ccc(OC)cc2OC)C1		inconclusive: 39.8 µM [activator, single point]
Cc1cccc(S(=O)(=O)Nc2nc3ccccc3nc2Nc2ccc3c(c2)OCO3)c1		active: 15.8 µM
Cn1cccc1CC(=O)N/N=C/C(Cl)=C/c1ccccc1		inconclusive: 39.8 µM [inhibitor, single point]
COc1ccc(C(C)(C)C)cc1NC(=O)c1cc(S(=O)(=O)N(C)C)ccc1N1CCCC1		inconclusive: 25.1 µM [activator, single point]
CCOC(=O)c1ccccc1NC(=O)COC(=O)c1ccc(C)c(S(=O)(=O)N2CCOCC2)c1		inconclusive: 31.6 µM [activator, single point]
COC(=O)CN(C#N)c1nc(OC)nc(N(C)C)n1		active: 20 µM
Cc1ccc(NC(=O)c2sc(-n3nc(C)c(CCC(C)C)c3C)nc2C)cc1C	inactive: -2.46%	
Cc1csc(NC(=O)C2CCN(C(=O)CSc3nnc(C)n3Cc3ccccc3)CC2)n1		inconclusive: 39.8 µM [activator, single point]
Cc1cc(C(=O)CSc2nnc(-c3ccc4c(c3)OCO4)o2)c(C)n1-c1ccc(F)cc1		inconclusive: 39.8 µM [inhibitor, single point]
CC1CCCC(NC(=O)C2CCN(S(=O)(=O)N3CCCCCC3)CC2)C1C (stereo unspecified)	inactive: -0.648%	
CS(=O)(=O)Nc1cccc(-c2nc(NCc3cccs3)c3ccccc3n2)c1		inconclusive: 31.6 µM [inhibitor, single point]
COC(=O)c1ccc(C(NC(=O)OCc2ccccc2)/C(F)=C/[C@@H](C)C(=O)N(C)Cc2cccnc2)cc1 (stereo partly specified)		inconclusive: 31.6 µM [activator, single point]
ClCC[N+]12CC[N+](CCCl)(CC1)C2 (tested in a mixture with another compound)	inactive: 3.78%	
CS(=O)(=O)NCC(c1ccco1)N1CCN(c2ccccc2)CC1 (stereo unspecified)	inactive: -7.55%	
CCOc1cc(S(=O)(=O)NCCc2cccc(C)c2)c(OCC)cc1-n1cnnn1		inconclusive: 39.8 µM [activator, single point]
CCCN(CCC)S(=O)(=O)c1ccc(C(=O)NNc2nc(-c3ccccc3)c3cc(Br)ccc3n2)cc1		active: 10 µM
